Experimental data reported in PubChem BioAssay AID1347120 (National Center for Advancing Translational Sciences (NCATS), 2019).
Out of some 390,000 compounds screened, about 930 (0.24%) were called active. Inconclusive results, whose numbers are uncertain, are shown with a selection of clear calls. Calls follow the shape of the dose curve; as a rule, active = well fitted activation curve with a large enough effect; inconclusive = small, poorly fitted or top-dose-only effect; inactive = no such curve, though single readings can be large or run the other way. Where the call is inconclusive, the potency comes from a doubtful curve fit.

test: qHTS for Suppressors of FUS Proteinopathy: Primary screen using FUS-linked yeast assay; also: nearly all actives have a fitted effect of over 55% in size;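 as to growth rescue (activation): plate controls were DMSO vehicle for no effect and reference control for full effect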; conditions: S. cerevisiae FUS-expressing, OD600, 24 h; Potency: growth rescue; growth rescue (activation): at 76.6 µM (top of the series)
Procedure, shortened: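 S. cerevisiae expressing FUS from galactose induction served as the toxicity model. Growth after 24hr at 30C, read as absorbance at 600 nm, indicates suppression of toxicity; compounds dosed at several concentrations.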
Potency is read from the fitted curve at half-maximal effect; tags tell the direction and shape of the fitted curve.

| SMILES | Potency | growth rescue (activation) |
| --- | --- | --- |
| COc1ccc(C2CC(c3ccccc3)=NN2C(=O)COC(=O)c2nc3nc(C)cc(C)n3n2)cc1 (stereo not given) | inconclusive: 22.4 µM [activator, partial curve, poor fit] | – |
| c1ccc(Nc2ncnc3c2oc2ccccc23)cc1 | – | inactive: 16.4% |
| Cc1ccc(CNC(=O)CN2C(=O)COc3ccc(S(=O)(=O)N4CCC(C)CC4)cc32)cc1 | inconclusive: 28.2 µM [activator, single point] | – |
| CC(=O)c1c(C)[nH]c(C(=O)Nc2ccccc2C)c1C | – | inactive: -4.59% |
| O=S(=O)(c1ccc(F)cc1)N1CCC(c2nc3ccccc3o2)CC1 | – | inactive: 7.49% |
| Brc1ccc(-c2nc3c4ccccc4ccn3c2Cc2ccccc2)cc1 | – | inactive: 1.68% |
| COc1cccc(NC(=O)N(C)C[C@H]2Oc3cc(C#Cc4ccncc4)ccc3S(=O)(=O)N([C@H](C)CO)C[C@H]2C)c1 | inconclusive: 25.1 µM [activator, single point] | – |
| N#Cc1ccccc1Cn1c(=O)n(C2CCCC2)c(=O)c2ccccc21 | inconclusive: 50.1 µM [activator, single point] | – |
| O=C(COc1ccccc1Cl)Nc1nc2c(s1)CCCC2 | – | inactive: 5.95% |
| CC(C)(C)c1cc2nc(NCCc3ccc(S(N)(=O)=O)cc3)ccn2n1 | – | inactive: 4.88% |
| O=C(Nc1ccccc1F)c1ccc([N+](=O)[O-])s1 | – | inactive: -14.2% |
| CCn1cc([N+](=O)[O-])c(C(=O)N2N=C3/C(=C/c4cccs4)CCCC3C2c2cccs2)n1 (stereo not given) | inconclusive: 25.1 µM [activator, partial curve] | – |
| CCn1c(COc2ccc(C)cc2)nnc1SCC(=O)Nc1cc(OC)ccc1OC | inconclusive: 25.1 µM [activator, single point] | – |
| CCCCC(CC)CNC(=O)CCCc1nnc2n(CCC)c(=O)c3sccc3n12 (stereo not given) | inconclusive: 22.4 µM [activator, partial curve, poor fit] | – |
| Cc1cc(C)c2nc(NC(=O)c3ccc(S(=O)(=O)N4CCCC4)cc3)sc2c1 | – | inactive: -6.46% |
| CC1CCC(NC(=O)CN2C(=O)c3cccnc3Oc3ccc(Cl)cc32)CC1 (stereo not given) | inconclusive: 50.1 µM [activator, single point] | – |
| Cc1cccc(N2CCN(C(=O)c3ccc4c(c3)N(Cc3ccccc3F)C(=O)c3ccccc3S4=O)CC2C)c1 (stereo not given) | inconclusive: 20 µM [activator, partial curve] | – |
| O=C(Nc1ccc2c(c1)OCO2)C1CCN(S(=O)(=O)c2cccs2)CC1 | inconclusive: 4.47 µM [activator, full curve, poor fit] | – |
| C[C@@H]1CCCCCCCCC(=O)OCCN[C@H](C)CCCCCCCCC(=O)OCCN[C@H](C)CCCCCCCCC(=O)OCCN1 | inconclusive: 25.1 µM [activator, partial curve, poor fit] | – |
| COc1cc(-c2nc(C(=O)NCC3CCCO3)cc3c2[nH]c2ccccc23)cc(OC)c1OC (stereo not given) | inconclusive: 22.4 µM [activator, single point] | – |
| CCCCCCSc1ccc(-c2nc3ccc(C)cn3c2NCc2ccccc2)cc1OC | inconclusive: 22.4 µM [activator, partial curve, poor fit] | – |
| CN(C(=O)C1CCCN(c2ncnc3c2nc2n3CCCCC2)C1)c1cccc(Cl)c1 (stereo not given) | – | inactive: 19.4% |
| COc1cccc(CC(NC(C)=O)C(=O)NC2CCN(c3nc(C)cc(C)c3C#N)CC2)c1 (stereo not given) | – | inactive: 17% |
| COc1ccc([C@H]2CC(=O)C=C(c3cccc(Cl)c3)C2)cc1OC | – | inactive: 32.9% |

| SMILES | Potency | growth rescue (activation) |
| --- | --- | --- |
| COc1ccc(C(C)(O)c2nc(-c3ccc(C)c(C)c3)cs2)cc1 (stereo not given) | inconclusive: 35.5 µM [activator, single point] | – |
| Cc1noc(C)c1C(=O)Nc1sc(C)c(C)c1C#N | – | inconclusive: 78.4% [activator] |
| Cc1cc(C)cc(N=c2c([N+](=O)[O-])nn(-c3ccc4c(c3)OCCO4)n2O)c1 | – | inactive: 12.8% |
| CCCCC1(C)NC(=O)N(CC(=O)Nc2ccc(S(=O)(=O)N3CCOCC3)cc2)C1=O (stereo not given) | inconclusive: 31.6 µM [activator, single point] | – |
| OCCN=c1cc(-c2ccccc2)oc2ccc(Cl)cc12 | – | inactive: 17.9% |
| CC1(C)CC(=O)C=C(NCc2ccc(C(=O)O)cc2)C1 | inconclusive: 1 µM [activator, full curve, poor fit] | – |
| Cc1ccccc1Cn1nc(C)c(NC(=O)c2noc3c2CC(C(C)(C)C)CC3)c1C (stereo not given) | inconclusive: 12.6 µM [activator, partial curve] | – |
| CC(C)CN(C(=O)CSc1nnc(-c2cccs2)n1C1CC1)C1CCS(=O)(=O)C1 (stereo not given) | – | inactive: -17.4% |
| Cc1nc2cccnc2n1-c1cccc(C(=O)NCc2ccc(OC(C)C)cc2)c1 | – | inactive: 22.2% |
| COc1cc(NS(=O)(=O)c2ccc(NC(=O)C(C)Oc3ccc(Cl)cc3Cl)cc2)nc(OC)n1 (stereo not given) | inconclusive: 28.2 µM [activator, single point] | – |
| O=C(NCc1ccccc1Cl)C1CCN(S(=O)(=O)c2ccc3c(c2)CCCN3C(=O)C2CCC2)CC1 | inconclusive: 25.1 µM [activator, single point] | – |
| C(=N\Nc1nncc2ccccc12)/c1ccccc1 | – | inactive: 5.97% |
| O=c1[nH]c(=S)[nH]c2c1C(c1cccc(C(F)(F)F)c1)OC(CCc1ccccc1)C2 (stereo not given) | inconclusive: 50.1 µM [activator, single point] | – |
| OC(c1cc(C(F)(F)F)nc2c(C(F)(F)F)cccc12)C1CCCCN1 (stereo not given) | – | inactive: -29.4% |
| CCCn1c(C2CCCN2c2nc(-c3cccc(Br)c3)cs2)nc2ccccc21 (stereo not given) | inconclusive: 35.5 µM [activator, single point] | – |
| COc1ccc(CCNC(=O)c2ccc(NC(=O)CC3SC(N4CCCCC4)=NC3=O)cc2)cc1OC (stereo not given) | inconclusive: 31.6 µM [activator, single point] | – |
| CC(=O)OC12CCCN(C1)/C(=C/c1ccc(Cl)cc1)C2 (stereo not given) | – | inactive: -13.5% |
| O=C(NC1CC1)c1ccc2snnc2c1 | – | inactive: -2.57% |
| COc1cc(C=NNc2ccc(S(=O)(=O)Nc3ccccc3C(=O)O)cc2[N+](=O)[O-])ccc1O | – | inactive: 12.2% |
| CC(C)(CNC(=S)NCCc1ccccc1)CNC(=S)NCCc1ccccc1 | inconclusive: 20 µM [activator, single point] | – |
| O=C(COC(=O)C12CC3CC(CC(C3)C1)C2)Nc1ccc(OC(F)F)cc1 | – | inactive: 17.2% |
| Cc1cccc(N2C(=O)C(CC(=O)Nc3cccc(F)c3)N(Cc3cccs3)C2=O)c1 (stereo not given) | inconclusive: 44.7 µM [activator, single point] | – |
| O=C(COC(=O)C1=Cc2ccccc2OC1)NCc1ccc(F)cc1 | inconclusive: 22.4 µM [activator, partial curve, poor fit] | – |
| COc1ccc(-n2c(=O)/c(=C\c3cccs3)s/c2=C(/C#N)C(=O)N2CCN(C)CC2)cc1 | – | inactive: 16.1% |

| SMILES | Potency | growth rescue (activation) |
| --- | --- | --- |
| COc1ccc(S[C@]2(C(=O)N3CCOCC3)CC(=O)N[C@@H]2c2ccc(OC)cc2)cc1 | – | inactive: 9.76% |
| CCOC(=O)N1CCC(NC(=O)c2ccc3c(c2)N(Cc2cccc(C)c2)C(=O)c2ccccc2S3(=O)=O)CC1 | inconclusive: 25.1 µM [activator, partial curve, poor fit] | – |
| Cc1nc(NC2CCCC2)c2nnn(Cc3ccccc3)c2n1 | – | inactive: 29% |
| CCN(CC(=O)NC(C)(C)C)C(=O)COc1c(Cl)cc(Cl)c2ccc(C)nc12 | – | inactive: -2.6% |
| CC1CCCN(CCOCCOc2ccc(Cl)cc2Br)C1 (stereo not given) | active: 7.08 µM | – |
| CCOC(=O)c1c(S(=O)(=O)N2CCC(C(=O)N3CCN(c4cccc(C)c4C)CC3)CC2)c(C)n(C)c1C | inconclusive: 28.2 µM [activator, single point] | – |
| CCn1cnc2c(cnn2-c2ccccc2)c1=O | – | inconclusive: 47.4% [activator] |
| COCC(C)OC(=O)c1c(N)n(CC(C)C)c2nc3ccccc3nc12 (stereo not given) | – | inconclusive: 49.3% [activator] |
| COc1cc(C(=O)NCc2ccc3c(c2)cc(C)n3C)cc(OC)c1OC | inconclusive: 39.8 µM [activator, partial curve, poor fit] | – |
| Cc1c(NC(=O)/C(C#N)=C/c2ccc(-c3ccc(Cl)cc3)o2)c(=O)n(-c2ccccc2)n1C | inconclusive: 25.1 µM [activator, partial curve, poor fit] | – |
| CCc1ccc(CNC(=O)c2ccc(CSc3nc4ccncc4n3Cc3ccc(OC)cc3)cc2)cc1 | inconclusive: 22.4 µM [activator, partial curve] | – |
| COc1ccc(N2CCN(C(=O)Cc3coc4ccc(C)cc34)CC2)cc1 | inconclusive: 28.2 µM [activator, single point] | – |
| CCN(CC)C(=O)C1=C(C)Nc2nc3ccccc3n2C1c1ccc(Br)cc1 (stereo not given) | – | inactive: -35.7% |
| CC(C)C[C@@H]1CN(CCCC[C@H]2CNC(=O)C(=O)N2CCC2CCCCC2)C(=O)C(=O)N1CCC1CCCCC1 | inconclusive: 25.1 µM [activator, single point] | – |
| O=c1c2cn[nH]c2nc(SCc2ccc3c(c2)OCCO3)n1-c1ccccc1 | inconclusive: 35.5 µM [activator, partial curve, poor fit] | – |
| COc1ccc2cc(C3=CC(=O)CCC3)ccc2c1 | – | inactive: 16.6% |
| N#C/C(=C\c1ccc(-c2ccccc2C(=O)O)o1)c1nc2ccccc2[nH]1 | inactive | – |
| O=C(Nc1cccc(Oc2ccccc2)c1)C1Cc2c(-c3cccc(F)c3)ccnc2O1 (stereo not given) | inconclusive: 28.2 µM [activator, single point] | – |
| O=C(CCCCn1c(=O)c2ccccc2n(Cc2ccc(Cl)cc2)c1=O)NCc1ccccc1Cl | – | inactive: -15.5% |
| Cc1cc(OC(C)C(=O)N(Cc2ccco2)Cc2ccccc2F)cc(C)c1Cl (stereo not given) | – | inactive: 11% |
| O=C(Nc1cnccn1)Nc1ccc(Cl)cc1Cl | – | inactive: -33.4% |
| CCOc1cccc2sc(N(Cc3cccnc3)C(=O)C3CCCCC3)nc12 | inconclusive: 31.6 µM [activator, single point] | – |
